The list shows a part of the results.

For one test, the system named is HSkMC. Briefly: cytotoxicity call (relative viability < 0.9). Conditions: 10 µM.
For another test, the system named is HepG2. Nature of the test: cytotoxicity call (relative viability < 0.9). Particulars: 10 µM.
Another test relates to S. aureus RN4220. Briefly: growth inhibition call (relative growth <= 0.2). Particulars: 50 µM.

For `CCS(=O)(=O)NCCc1csc(C)n1`, the cytotoxicity call in the test with HSkMC and in the test with HepG2 was “inactive” throughout. Moreover, in the test on S. aureus RN4220, the growth inhibition call was “inactive”.

As to `O=C(C[C@@H]1C[C@@H]2c3cc(NC(=O)Cc4ccncc4)ccc3O[C@@H]2[C@H](CO)O1)NCCc1ccccc1`, the cytotoxicity call with HSkMC and in the test with HepG2 was “inactive” each time. The growth inhibition call with S. aureus RN4220 was “inactive”.

`Cc1ccc(S(=O)(=O)Nc2ccc3c(c2)CC(=O)N([C@H](C)CO)C[C@@H](C)[C@H](CN(C)CC2CC2)O3)cc1`: the cytotoxicity call in the test on HSkMC and in the test on HepG2 was “inactive” in each case. The growth inhibition call with S. aureus RN4220 was “inactive”.

Take `O=C(C[C@@H]1CC[C@H]2[C@@H](COC[C@H](O)CN2C(=O)Nc2cccc(F)c2)O1)NCc1ccccc1Cl`: the cytotoxicity call in the test on HSkMC and in the test on HepG2 was “inactive” throughout. In the test on S. aureus RN4220, the growth inhibition call is “inactive”.

Consider `C[C@@H]1CCCCO[C@@H](CN(C)C(=O)CCC(F)(F)F)[C@H](C)CN([C@@H](C)CO)C(=O)c2cc(NS(=O)(=O)c3cccs3)ccc2O1`, for which the cytotoxicity call in the test on HSkMC and with HepG2 was “inactive” in each case. Moreover, the growth inhibition call with S. aureus RN4220 is “inactive”.

As to `Cc1noc(C)c1S(=O)(=O)N(C)C[C@H]1Oc2ccc(NC(=O)CCN3CCOCC3)cc2CC(=O)N([C@@H](C)CO)C[C@H]1C`, the cytotoxicity call in the test on HSkMC and in the test with HepG2 was “inactive” in each case. Further, the growth inhibition call with S. aureus RN4220 was “inactive”.

For `Cc1ccc(S(=O)(=O)Nc2ccc3c(c2)C(=O)N([C@H](C)CO)C[C@H](C)[C@H](CN(C)Cc2ccc(C(F)(F)F)cc2)O3)cc1`, in the test with HSkMC, the cytotoxicity call is “inactive”. The cytotoxicity call in the test on HepG2 is “active”. Further, the growth inhibition call in the test with S. aureus RN4220 is “inactive”.

Regarding `COc1ccc(NC(=O)N(C)C[C@@H]2Oc3c(NC(=O)C4CC4)cccc3C(=O)N([C@H](C)CO)C[C@@H]2C)cc1`, the cytotoxicity call in the test with HSkMC and in the test with HepG2 was “inactive” throughout. Besides, the growth inhibition call in the test with S. aureus RN4220 is “inactive”.

As for `C[C@@H]1CCCCO[C@@H](CN(C)Cc2ccc(Cl)c(Cl)c2)[C@H](C)CN([C@H](C)CO)C(=O)c2cc(NC(=O)Nc3ccc(C(F)(F)F)cc3)ccc2O1`, the cytotoxicity call in the test with HSkMC and in the test on HepG2 was “inactive” in each case. For the same molecule, the growth inhibition call in the test with S. aureus RN4220 was “inactive”.

For `COc1ccc(CN(C)C[C@@H]2OCCCC[C@@H](C)Oc3ccc(NC(=O)C4CCCCC4)cc3C(=O)N([C@H](C)CO)C[C@H]2C)cc1`, the cytotoxicity call in the test on HSkMC and in the test on HepG2 was “inactive” throughout. The growth inhibition call in the test on S. aureus RN4220 was “inactive”.

On to `COc1ccc(S(=O)(=O)N(C)C[C@@H]2Oc3c(NC(=O)Nc4cccc5ccccc45)cccc3C(=O)N([C@@H](C)CO)C[C@H]2C)cc1`, for which the cytotoxicity call in the test on HSkMC and in the test on HepG2 was “inactive” throughout. For the same molecule, the growth inhibition call in the test with S. aureus RN4220 was “inactive”.

As for `C[C@@H]1CN([C@@H](C)CO)C(=O)Cc2cc(NS(=O)(=O)c3ccc(F)cc3)ccc2O[C@@H]1CN(C)C(=O)Nc1cccc2ccccc12`, the cytotoxicity call in the test on HSkMC and with HepG2 was “inactive” each time. Further, the growth inhibition call with S. aureus RN4220 was “inactive”.

Regarding `O=S(=O)(NCC[C@@H]1CC[C@@H](NS(=O)(=O)c2ccccc2Cl)[C@@H](CO)O1)c1ccc(Cl)cc1`, the cytotoxicity call in the test on HSkMC and in the test with HepG2 was “inactive” in each case. In the test with S. aureus RN4220, the growth inhibition call is “inactive”.

Consider `C[C@H](CO)N1C[C@H](C)[C@H](CN(C)Cc2ccc3c(c2)OCO3)Oc2ccc(NC(=O)Nc3ccc(C(F)(F)F)cc3)cc2C1=O`, for which the cytotoxicity call in the test with HSkMC and in the test on HepG2 was “active” each time. For the same molecule, the growth inhibition call in the test on S. aureus RN4220 was “inactive”.

With `C[C@@H]1CCCCO[C@@H](CN(C)C(=O)Nc2ccccc2)[C@H](C)CN([C@@H](C)CO)C(=O)c2cc(NS(=O)(=O)c3cccs3)ccc2O1`, the cytotoxicity call in the test with HSkMC and in the test with HepG2 was “inactive” each time. Further, the growth inhibition call in the test on S. aureus RN4220 is “inactive”.

Regarding `C[C@@H]1CN([C@H](C)CO)C(=O)c2cc(NC(=O)c3ccncc3)ccc2O[C@@H](C)CCCCO[C@H]1CN(C)C(=O)Nc1ccc(C(F)(F)F)cc1`, the cytotoxicity call in the test on HSkMC and in the test with HepG2 was “inactive” each time. Also, the growth inhibition call in the test on S. aureus RN4220 was “inactive”.

On to `C[C@H](CO)N1C[C@H](C)[C@H](CN(C)C(=O)c2ccc(F)cc2)OCc2ccccc2-c2c(n(C)c3ccccc23)C1=O`, for which the cytotoxicity call in the test on HSkMC and in the test with HepG2 was “inactive” in each case. The growth inhibition call in the test on S. aureus RN4220 was “inactive”.

Consider `CCCN(C)C[C@@H]1OCCCC[C@@H](C)Oc2ccc(NS(=O)(=O)c3ccc(Cl)cc3)cc2C(=O)N([C@H](C)CO)C[C@@H]1C`, for which the cytotoxicity call with HSkMC and in the test with HepG2 was “inactive” throughout. In addition, the growth inhibition call in the test on S. aureus RN4220 is “inactive”.

On to `CN(C)Cc1cn(CC[C@@H]2CC[C@H](NC(=O)Cc3cccnc3)[C@@H](CO)O2)nn1`, for which the cytotoxicity call in the test with HSkMC and in the test with HepG2 was “inactive” each time. Also, the growth inhibition call in the test with S. aureus RN4220 was “inactive”.

In the case of `Cn1c(=O)n2n(c1=O)[C@H](C1CC1)C=C1CN3[C@@H]([C@H](Cc4ccccc4)OC(=O)[C@@H]3Cc3ccc(N=[N+]=[N-])cc3)[C@@H]12`, the cytotoxicity call in the test on HSkMC and with HepG2 was “inactive” throughout. Further, in the test with S. aureus RN4220, the growth inhibition call was “inactive”.

Turning to `O=C(C[C@@H]1CC[C@H]2[C@@H](COC[C@H](O)CN2S(=O)(=O)c2ccc(F)cc2)O1)N[C@H]1CCN(Cc2ccccc2)C1`, the cytotoxicity call in the test on HSkMC and in the test on HepG2 was “inactive” each time. Further, the growth inhibition call in the test with S. aureus RN4220 was “inactive”.

In the case of `O=S(=O)(NCC[C@@H]1CC[C@H](NS(=O)(=O)c2cccc(Cl)c2)[C@H](CO)O1)c1cccc(F)c1`, the cytotoxicity call in the test with HSkMC and in the test with HepG2 was “inactive” in each case. The growth inhibition call with S. aureus RN4220 is “inactive”.

For `C[C@H]1CN([C@@H](C)CO)C(=O)c2cc(Br)cnc2O[C@H]1CN(C)Cc1ccccc1C(=O)O`, the cytotoxicity call with HSkMC and in the test with HepG2 was “inactive” throughout. In addition, in the test with S. aureus RN4220, the growth inhibition call was “inactive”.

Turning to `C[C@H]1CN([C@@H](C)CO)C(=O)c2cc(NC(=O)CCN3CCOCC3)ccc2O[C@@H]1CN(C)CC1CCCCC1`, the cytotoxicity call in the test with HSkMC and in the test with HepG2 was “inactive” throughout. Besides, the growth inhibition call in the test with S. aureus RN4220 was “inactive”.

`C[C@@H]1CCCCO[C@H](CN(C)S(=O)(=O)c2ccccc2)[C@@H](C)CN([C@H](C)CO)C(=O)c2cc(NC(=O)CCC(F)(F)F)ccc2O1`: the cytotoxicity call in the test on HSkMC and in the test on HepG2 was “inactive” throughout. Also, the growth inhibition call in the test on S. aureus RN4220 was “inactive”.

On to `C[C@H](CO)N1C[C@H](C)[C@@H](CN(C)C(=O)Nc2cccc3ccccc23)Oc2ccc(NC(=O)CCC(F)(F)F)cc2CC1=O`, for which the cytotoxicity call in the test on HSkMC (human skeletal muscle cells) and with HepG2 was “inactive” each time. In the test on S. aureus RN4220, the growth inhibition call was “inactive”.
